This is one part of the list.
target: T1, OsWOX13 (Oryza sativa, UniProt Q5QMM3 1-267); test: protein-binding microarray (RPBM); PBS, 2% BSA, 51.3 ng/ul salmon testes DNA, 50 uM zinc acetate, 200 nM TF, 25 C, 1 h; high values mean tight binding; conditions: protein: recombinant; tags: N-terminal polyhistidine and DsRed monomer fusion (pET32a); label: CyDye5-dUTP incorporated in the synthesized complementary strand; 3' TTTTT single-stranded linker to array surface; dsDNA, one strand shown
T1 sequence: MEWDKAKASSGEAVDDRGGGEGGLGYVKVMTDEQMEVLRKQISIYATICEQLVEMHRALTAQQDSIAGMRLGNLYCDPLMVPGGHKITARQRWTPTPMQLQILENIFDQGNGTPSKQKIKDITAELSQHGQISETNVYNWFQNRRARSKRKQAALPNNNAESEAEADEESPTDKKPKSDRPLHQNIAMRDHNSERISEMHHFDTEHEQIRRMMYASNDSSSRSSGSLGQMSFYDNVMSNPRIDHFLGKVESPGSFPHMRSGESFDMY
In short: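 The binding signal is fluorescence intensity per array feature (arbitrary units). Readings came from an Axon 4000B scanner after a washed, 2% BSA-blocked, double-stranded custom Agilent array had been incubated for 1 h at 25 °C with 200 nM protein and 50 µM zinc acetate. The protein was a Ni–NTA-purified transcription factor fused N-terminally to polyhistidine and DsRed, expressed in E. coli BL21-CodonPlus.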

Row | Sequence | binding signal
1 | ACAGTTTGATTAGTGCCAAGGATCAAACATTTTCCTACTGCGGAGTCACCTAGTGCAG | 23700 fluorescence intensity (a.u.)
2 | CTTAATTTGGCACTGCCCAAGAAAATTTTGACAAGTACTTCGGAGTCACCTAGTGCAG | 9440 fluorescence intensity (a.u.)
3 | ATAAGGAGATTGAGCTTGACCAAGTACAGTCTCAGGACATCGGAGTCACCTAGTGCAG | 3560 fluorescence intensity (a.u.)
4 | CGAATTAACTAGATCATATTACTCTTTCATGCAATAAACACGGAGTCACCTAGTGCAG | 4320 fluorescence intensity (a.u.)
5 | AAGGATAGACAATTTGCTGAGCTTTATAATGTTGGCATCACGGAGTCACCTAGTGCAG | 6480 fluorescence intensity (a.u.)
6 | TTAAGCCTAATTAATCTGTCATTAGTAAATGTTTACTGTACGGAGTCACCTAGTGCAG | 21500 fluorescence intensity (a.u.)
7 | AGGTTATGATTGCGCGAAGCCGTGACTTAGATAGCTAGTTCGGAGTCACCTAGTGCAG | 17200 fluorescence intensity (a.u.)
8 | AACTCAATTAGTCTTAATGAATTTGTCGTTTTGCATGCCGCGGAGTCACCTAGTGCAG | 17800 fluorescence intensity (a.u.)
9 | GATAATTTCATTTATGAGAAAGGCCAAATCCCTTATAGCTCGGAGTCACCTAGTGCAG | 11000 fluorescence intensity (a.u.)
10 | TGCTAATTGGGGATTTTCACATTCATGCTGTGTTAGCAGGCGGAGTCACCTAGTGCAG | 54700 fluorescence intensity (a.u.)
11 | CAATCAATCAGTCAAGCAATCCGGCGTTACAGCTGGCTCGCGGAGTCACCTAGTGCAG | 34200 fluorescence intensity (a.u.)
12 | CAATTAACTTAACTTGAGTGTTTATGCATTCGTGATGATGCGGAGTCACCTAGTGCAG | 6830 fluorescence intensity (a.u.)
13 | ACGAGCTAGATTATAGTACTAATTACTTGAGGATTCGGTTCGGAGTCACCTAGTGCAG | 5230 fluorescence intensity (a.u.)
14 | CTCACCTTCTCATCTCAATCAACAGTTGAGAGGACAACTGCGGAGTCACCTAGTGCAG | 5530 fluorescence intensity (a.u.)
15 | GAAAATCAATCAGTTGAATTAATCAGTCATGCCAAGAGTCCGGAGTCACCTAGTGCAG | 27800 fluorescence intensity (a.u.)
16 | CTATAAATTTTCATCATGTATGAACCTGGCTCTTATCAAACGGAGTCACCTAGTGCAG | 3860 fluorescence intensity (a.u.)
17 | AACCAATCACAACCCTCCACCATTCGCTTTTCCCACCTAACGGAGTCACCTAGTGCAG | 18000 fluorescence intensity (a.u.)
18 | GTTACTGTGATTTGTTTCACGAAGCCCCATGTTTTGAGCCCGGAGTCACCTAGTGCAG | 11700 fluorescence intensity (a.u.)
19 | GACAAATTATCTCCAAATCCCCGCAAAATTCACTGCTCCACGGAGTCACCTAGTGCAG | 15400 fluorescence intensity (a.u.)
20 | GAAATGAGCTATAATTGTTAAACTAGGTGAGGACACCCACCGGAGTCACCTAGTGCAG | 7630 fluorescence intensity (a.u.)
21 | CCCACATGCCAGACTGATTGCCAGTCATGAGCAAGGGTCCCGGAGTCACCTAGTGCAG | 23900 fluorescence intensity (a.u.)
22 | TGCCAGTAATTGTGACGTGACAAGATGCAGGCGTGGTGTGCGGAGTCACCTAGTGCAG | 29600 fluorescence intensity (a.u.)
23 | ATCAAACTGACTGGCACGCCCGCATCTCACCAATCTTTGGCGGAGTCACCTAGTGCAG | 13300 fluorescence intensity (a.u.)
24 | ATTTGAATTTAAATTTGAATCGGATATGTAAACTTGTGACCGGAGTCACCTAGTGCAG | 12000 fluorescence intensity (a.u.)
25 | TTGGTGAGTTGACAGAAATTTGTATCATCTTAAAATGAGCCGGAGTCACCTAGTGCAG | 4960 ± 898 fluorescence intensity (a.u.)
26 | AACAAATTTCATTATATGTCACTCAATTCGCACTCCATTTCGGAGTCACCTAGTGCAG | 5130 fluorescence intensity (a.u.)
27 | ATTGACAGCCACACGATCCGTCACCAAACCTCACGTTTTACGGAGTCACCTAGTGCAG | 6620 fluorescence intensity (a.u.)

Row | Sequence | binding signal
28 | CTAGTTAAAGTTTGATTTGTTATTTTCGTTACAACTTGTACGGAGTCACCTAGTGCAG | 4370 fluorescence intensity (a.u.)
29 | AGCTCTATGATTTTACAATTTAAAATTATATTATATAAAGCGGAGTCACCTAGTGCAG | 15800 fluorescence intensity (a.u.)
30 | GGTGGATGTGATCGATCACTAAATTAAACCCAGAAACACACGGAGTCACCTAGTGCAG | 3630 fluorescence intensity (a.u.)
31 | CAGATAATGGGTAATTCAAATGACCAATCCGAATAGCAACCGGAGTCACCTAGTGCAG | 11800 fluorescence intensity (a.u.)
32 | TCCTGAAAATAATTGGAAAACCATTTTCACTCATGTTTCCCGGAGTCACCTAGTGCAG | 10700 fluorescence intensity (a.u.)
33 | AGTTTAAATCCCTAAATAGATTATGGCCTTATGGGCTTCACGGAGTCACCTAGTGCAG | 3440 fluorescence intensity (a.u.)
34 | TGTATTTGATTGAAACTGTTCATACTATAAACATGCTGGGCGGAGTCACCTAGTGCAG | 57900 fluorescence intensity (a.u.)
35 | AAATTGATTGGGGATAAATCTCAAAATTAAGATGAATGAGCGGAGTCACCTAGTGCAG | 51700 fluorescence intensity (a.u.)
36 | ATTTTCTAGGATGATTTGTTGATGGATTTGTGATTTCGTGCGGAGTCACCTAGTGCAG | 20700 fluorescence intensity (a.u.)
37 | ATTAAATCAATAATTAAATATATTTTCATAATAAATTTGTCGGAGTCACCTAGTGCAG | 23400 fluorescence intensity (a.u.)
38 | AGAAGATTAACCGTTAAACCGTTTTATCAGCCATGGGATGCGGAGTCACCTAGTGCAG | 11400 fluorescence intensity (a.u.)
39 | ACTAATTAAGCTTGGAGAGTCCAGCTGGCCGGAAGGTGTTCGGAGTCACCTAGTGCAG | 9160 fluorescence intensity (a.u.)
40 | TAATTCCCAATCAATTAAACGAGACGAGTCATTAGCAAGCCGGAGTCACCTAGTGCAG | 27800 fluorescence intensity (a.u.)
41 | TATTTTAATTTTATTATTATTATATGGTTTAGTTAAGATGCGGAGTCACCTAGTGCAG | 4950 fluorescence intensity (a.u.)
42 | CGCGAGGACAAAGCCAATCAATCTGCTGCCTACTGCGATTCGGAGTCACCTAGTGCAG | 6900 fluorescence intensity (a.u.)
43 | CCTCTTTTGATAGATTCAATTCAAATGGCGGAGGACATTGCGGAGTCACCTAGTGCAG | 14000 fluorescence intensity (a.u.)
44 | AGGTGACAGAAATTGGTCGGTTCCGTGAAAACCAGACTTTCGGAGTCACCTAGTGCAG | 8960 fluorescence intensity (a.u.)
45 | TATCTTCACCGTGGGTGATTGGGTGTTCCTTAAGCTCCAACGGAGTCACCTAGTGCAG | 5920 fluorescence intensity (a.u.)
46 | ATTTAAATTTTAAATTTTAATAATCGGTGATTTTGTACAGCGGAGTCACCTAGTGCAG | 24700 fluorescence intensity (a.u.)
47 | AGGTTGATTAGAAAAGGATGACCTGACTAGCACCCTCATTCGGAGTCACCTAGTGCAG | 35800 fluorescence intensity (a.u.)
48 | CGCATGATTGAGAAAACATAGGATTTGGATAGGAATGCAACGGAGTCACCTAGTGCAG | 30800 fluorescence intensity (a.u.)
49 | CATCACACTTGATTGTATCCCAGCAAGCTTGATAGAAAAGCGGAGTCACCTAGTGCAG | 8690 fluorescence intensity (a.u.)
50 | GTATAATGAATCTAGATATGATTATATCTAGATTCGTTGTCGGAGTCACCTAGTGCAG | 4680 fluorescence intensity (a.u.)
51 | ATACGATTGCTGTTTATATAAGCTGCTGGTGAACCAGCGTCGGAGTCACCTAGTGCAG | 3180 fluorescence intensity (a.u.)
52 | GGATGACGTTGCATCAAATGATTGCAAAGCGCCATAAGTACGGAGTCACCTAGTGCAG | 3740 fluorescence intensity (a.u.)
53 | TAGAATGATTTATATTATGAAACGGAGGGAGTATCTATTACGGAGTCACCTAGTGCAG | 15200 fluorescence intensity (a.u.)
54 | TTTAATTTTGATATTTTGCTATCACCGTCACATAGGACGACGGAGTCACCTAGTGCAG | 9950 fluorescence intensity (a.u.)

Reference: paper PMC7819943, “Rice protein-binding microarrays: a tool to detect cis-acting elements near promoter regions in rice”
